According to the antibiotic and cytotoxicity screens of Wong et al. (2023):
The other results are listed elsewhere or left out.

Columns and labels:
HSkMC = human skeletal muscle cells; assay: cytotoxicity call (relative viability < 0.9); details: 10 µM
HepG2 = assay: cytotoxicity call (relative viability < 0.9); details: 10 µM
S. aureus RN4220 = assay: growth inhibition call (relative growth <= 0.2); details: 50 µM

C/N=C(\NC)NCCC[C@H](N)C(=O)O
inactive: cytotoxicity call (HSkMC) | cytotoxicity call (HepG2) | growth inhibition call (S. aureus RN4220)

C[C@H](CO)N1C[C@H](C)[C@@H](CN(C)S(C)(=O)=O)Oc2c(NC(=O)CCC(F)(F)F)cccc2C1=O
inactive: cytotoxicity call (HSkMC) | cytotoxicity call (HepG2) | growth inhibition call (S. aureus RN4220)

C[C@@H]1CN([C@@H](C)CO)C(=O)Cc2cc(NC(=O)C3CC3)ccc2O[C@@H]1CN(C)Cc1ccc(Oc2ccccc2)cc1
inactive: cytotoxicity call (HSkMC) | cytotoxicity call (HepG2) | growth inhibition call (S. aureus RN4220)

COCC(=O)Nc1ccc2c(c1)C(=O)N(C)C[C@@H](OC)[C@H](C)CN(C(=O)Cc1cccnc1)[C@H](C)CO2
inactive: cytotoxicity call (HSkMC) | cytotoxicity call (HepG2) | growth inhibition call (S. aureus RN4220)

CCCN(C)C[C@H]1OCCCC[C@@H](C)Oc2ccc(NC(=O)Cc3ccccc3)cc2C(=O)N([C@@H](C)CO)C[C@H]1C
inactive: cytotoxicity call (HSkMC) | cytotoxicity call (HepG2) | growth inhibition call (S. aureus RN4220)

C[C@H](CO)N1C[C@H](C)[C@H](CN(C)Cc2ccc(C(F)(F)F)cc2)Oc2c(NC(=O)Nc3ccccc3)cccc2C1=O
inactive: cytotoxicity call (HSkMC) | cytotoxicity call (HepG2) | growth inhibition call (S. aureus RN4220)

COC[C@@H]1CN(C(=O)c2cscn2)N1C
inactive: cytotoxicity call (HSkMC) | cytotoxicity call (HepG2) | growth inhibition call (S. aureus RN4220)

O=C1c2ccccc2[C@](Cc2ccccc2I)(C(=O)O)[C@H](c2ccc(CO)cc2)N1C1CCCCC1
inactive: cytotoxicity call (HSkMC) | cytotoxicity call (HepG2) | growth inhibition call (S. aureus RN4220)

C[C@@H]1CN([C@@H](C)CO)C(=O)Cc2cc(NS(=O)(=O)c3ccc(Cl)cc3)ccc2O[C@H]1CN(C)Cc1ccc(C(=O)Nc2ccccc2N)cc1
inactive: cytotoxicity call (HSkMC) | cytotoxicity call (HepG2) | growth inhibition call (S. aureus RN4220)

C[C@H](CO)N1C[C@H](C)[C@H](CN(C)S(C)(=O)=O)Oc2ccc(NS(=O)(=O)c3cn(C)cn3)cc2C1=O
inactive: cytotoxicity call (HSkMC) | cytotoxicity call (HepG2) | growth inhibition call (S. aureus RN4220)

O=C1N[C@@H](Cc2c[nH]c3ccccc23)COC(=O)[C@H](Cc2ccc(F)cc2)CCC=CC[C@H]1CC(=O)N(CCO)Cc1ccccc1
inactive: cytotoxicity call (HSkMC) | cytotoxicity call (HepG2) | growth inhibition call (S. aureus RN4220)

Clc1ccc2sc(Sc3ccccc3)nc2c1
inactive: cytotoxicity call (HSkMC) | cytotoxicity call (HepG2) | growth inhibition call (S. aureus RN4220)

CCn1nnc2c(N3CCOCC3)ncnc21
inactive: cytotoxicity call (HSkMC) | cytotoxicity call (HepG2) | growth inhibition call (S. aureus RN4220)

C[C@H](CO)N1C[C@H](C)[C@@H](CN(C)Cc2ccc(Cl)c(Cl)c2)OCCCC[C@H](C)Oc2ccc(NS(=O)(=O)c3ccc(Cl)cc3)cc2C1=O
inactive: cytotoxicity call (HSkMC) | cytotoxicity call (HepG2) | growth inhibition call (S. aureus RN4220)

C[C@@H]1CN([C@@H](C)CO)C(=O)c2cc(NC(=O)C3CCCCC3)ccc2O[C@@H](C)CCCCO[C@@H]1CN(C)C(=O)Cc1ccccc1
inactive: cytotoxicity call (HSkMC) | cytotoxicity call (HepG2) | growth inhibition call (S. aureus RN4220)

C[C@@H]1CN([C@@H](C)CO)C(=O)Cc2cc(NC(=O)CCN3CCOCC3)ccc2O[C@@H]1CN(C)Cc1ccc(C(=O)Nc2ccccc2N)cc1
inactive: cytotoxicity call (HSkMC) | cytotoxicity call (HepG2) | growth inhibition call (S. aureus RN4220)

Cc1noc(C)c1NC(=O)N(C)C[C@H]1OCCCC[C@@H](C)Oc2ccc(NS(=O)(=O)c3cccs3)cc2C(=O)N([C@@H](C)CO)C[C@H]1C
inactive: cytotoxicity call (HSkMC) | cytotoxicity call (HepG2) | growth inhibition call (S. aureus RN4220)

COc1ccc(S(=O)(=O)Nc2ccc3c(c2)C(=O)N([C@@H](C)CO)C[C@H](C)[C@@H](CN(C)Cc2ccc(C(=O)O)cc2)OCCCC[C@H](C)O3)cc1
inactive: cytotoxicity call (HSkMC) | cytotoxicity call (HepG2) | growth inhibition call (S. aureus RN4220)

Cc1noc(C)c1NC(=O)N(C)C[C@@H]1OCCCC[C@@H](C)Oc2ccc(NC(=O)Cc3ccccc3)cc2C(=O)N([C@H](C)CO)C[C@@H]1C
inactive: cytotoxicity call (HSkMC) | cytotoxicity call (HepG2) | growth inhibition call (S. aureus RN4220)

C[C@@H]1CN([C@H](C)CO)C(=O)c2cccc(NS(=O)(=O)c3cn(C)cn3)c2O[C@@H]1CN(C)Cc1ccccc1
inactive: cytotoxicity call (HSkMC) | cytotoxicity call (HepG2) | growth inhibition call (S. aureus RN4220)

C[C@@H]1CN([C@@H](C)CO)C(=O)Cc2cc(NC(=O)c3ccncc3)ccc2O[C@H]1CN(C)Cc1ccc(C(=O)O)cc1
inactive: cytotoxicity call (HSkMC) | cytotoxicity call (HepG2) | growth inhibition call (S. aureus RN4220)

CCn1c(C)cn2c3c(=O)n(CCN4CCOCC4)c(=O)n(C)c3nc12
inactive: cytotoxicity call (HSkMC) | cytotoxicity call (HepG2) | growth inhibition call (S. aureus RN4220)

CO[C@H]1CN(C)C(=O)c2cc(NC(=O)C3CCOCC3)ccc2OC[C@H](C)N(Cc2cccnc2)C[C@@H]1C
inactive: cytotoxicity call (HSkMC) | cytotoxicity call (HepG2) | growth inhibition call (S. aureus RN4220)

COc1ccc(NC(=O)Nc2ccc3c(c2)C(=O)N([C@@H](C)CO)C[C@@H](C)[C@@H](CN(C)Cc2ccc4c(c2)OCO4)OCCCC[C@H](C)O3)cc1
inactive: cytotoxicity call (HSkMC) | cytotoxicity call (HepG2) | growth inhibition call (S. aureus RN4220)

Cc1[nH]c(=O)c(C#N)cc1-c1ccncc1
inactive: cytotoxicity call (HSkMC) | cytotoxicity call (HepG2) | growth inhibition call (S. aureus RN4220)

COc1ccc(-n2c(N)cc(=O)[nH]c2=O)cc1
inactive: cytotoxicity call (HSkMC) | cytotoxicity call (HepG2) | growth inhibition call (S. aureus RN4220)

CC(C)Oc1ccccc1OCc1cnnn1CC(=O)NS(=O)(=O)c1ccccc1OC(F)(F)F
inactive: cytotoxicity call (HSkMC) | cytotoxicity call (HepG2) | growth inhibition call (S. aureus RN4220)
